In the assay the target is T1, endogenous LEAP2 (Mus musculus, UniProt Q91V13).
T1 construct: The mature form of LEAP2 found in circulation is a 40 amino acid cationic bicyclic peptide; from tissue; host or cells: live fasted mice; circulating endogenous LEAP2
T1 sequence (Q91V13 37-76): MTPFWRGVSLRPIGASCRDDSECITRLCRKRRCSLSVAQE
Description: Growth hormone release after fasting and anti-LEAP2 antibody treatment. It is filed as in vivo, mice. As to conditions: 10 mg/kg i.p. after 24 hour fasting. As to the method: FIG. 10C illustrates the experimental design for evaluating the impact of anti-LEAP2 antibodies on growth hormone release. Following a 24 hour fasting period, a baseline blood sample was taken, and anti-LEAP2 antibodies (10 mg/kg) were administered by intraperitoneal injection. Growth hormone levels were determined at 5, 10, 30, 60, 90, and 120 minutes post-injection.

B1: M2: mouse hybridoma anti-LEAP2 monoclonal antibody, VH SEQ ID NO:7, VL SEQ ID NO:8; M1 and M2 have identical sequences (antibody, V domains shown)
VH: EVQLQQSGTVLARPGASVKMSCKASGYTFTSYWMHWVKQRPGQGLEWIGAIYPGNSDTSYKQKFKGKAKLTAVTSASTVYMELSSLTDEDSAVYYCTYGKEEYLFAMDYWGQGTSVTVSS
VL: DIVMSQSPSSLAVSVGEKVTMS[here about 80 residues without letters]GGGTKLKIK
As to B1, the “total amount of growth hormone released (AUC)” value is on record as “increased the total amount of growth hormone released”. Further, the “peak of growth hormone secretion” value (versus control antibody) is on record as “increased the peak of growth hormone secretion”.

These data come from patent publication US11548942B2, “Methods of treating a wasting syndrome, increasing growth hormone levels, and increasing GHSR activity with a LEAP2 antibody” (NGM Biopharmaceuticals, Inc., priority 2017, dated 2023).
